Test results as given in the supplement of paper PMC8728848.
The other results are listed elsewhere or left out.

Tests used:
Assay in all cases: glycan array binding signal (z-score within array); higher = stronger binding
Conditions in all cases: glycan notation: IUPAC condensed, linker removed
[1] = target: GlcA(b1-3)GlcNAc
Method in brief: (§1)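 From the Consortium for Functional Glycomics database, 3228 arrays were curated, keeping only those whose protein sequence was available. Binding is given as a within-array Z-score averaged across arrays sharing a protein sequence and across linkers. Negative Z-scores can be read as non-binding.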

[2] = target: GlcA(b1-6)Gal
Method in brief: as §1

[3] = target: GlcNAc(a1-3)Gal(b1-4)GlcNAc
Method in brief: as §1

[4] = target: GlcNAc(a1-6)Gal(b1-4)GlcNAc
Method in brief: as §1

[5] = target: GlcNAc(b1-2)Gal(b1-3)GalNAc
Method in brief: as §1

[6] = target: GlcNAc(b1-2)Man(a1-3)[GlcNAc(b1-2)Man(a1-6)]Man(b1-4)GlcNAc(b1-4)GlcNAc
Method in brief: as §1

[7] = target: GlcNAc(b1-3)Gal
Method in brief: as §1

[8] = target: GlcNAc(b1-3)Gal(b1-3)GalNAc
Method in brief: as §1

[9] = target: GlcNAc(b1-3)Gal(b1-4)Glc
Method in brief: as §1

[10] = target: GlcNAc(b1-3)Gal(b1-4)GlcNAc
Method in brief: as §1

[11] = target: GlcNAc(b1-3)Gal(b1-4)GlcNAc(b1-3)Gal(b1-4)GlcNAc
Method in brief: as §1

[12] = target: GlcNAc(b1-3)GalNAc
Method in brief: as §1

[13] = target: GlcNAc(b1-3)Man
Method in brief: as §1

[14] = target: GlcNAc(b1-3)[GlcNAc(b1-4)][GlcNAc(b1-6)]GlcNAc
Method in brief: as §1

[15] = target: GlcNAc(b1-3)[GlcNAc(b1-6)]Gal(b1-4)GlcNAc
Method in brief: as §1

[16] = target: GlcNAc(b1-3)[GlcNAc(b1-6)]GalNAc
Method in brief: as §1

[17] = target: GlcNAc(b1-4)Gal(b1-4)GlcNAc
Method in brief: as §1

[18] = target: GlcNAc(b1-4)GlcNAc
Method in brief: as §1

[19] = target: GlcNAc(b1-4)GlcNAc(b1-4)GlcNAc
Method in brief: as §1

[20] = target: GlcNAc(b1-4)GlcNAc(b1-4)GlcNAc(b1-4)GlcNAc(b1-4)GlcNAc
Method in brief: as §1

[21] = target: GlcNAc(b1-4)GlcNAc(b1-4)GlcNAc(b1-4)GlcNAc(b1-4)GlcNAc(b1-4)GlcNAc
Method in brief: as §1

[22] = target: GlcNAc(b1-4)[GlcNAc(b1-6)]GalNAc
Method in brief: as §1

[23] = target: GlcNAc(b1-6)Gal(b1-4)GlcNAc
Method in brief: as §1

[24] = target: GlcNAc(b1-6)GalNAc
Method in brief: as §1

[25] = target: GlcNAc3Prop(b1-4)GlcNAc
Method in brief: as §1

[26] = target: Kdn(a2-3)Gal(b1-3)GlcNAc
Method in brief: as §1

[27] = target: Kdn(a2-3)Gal(b1-4)GlcNAc
Method in brief: as §1

[28] = target: Man(a1-2)Man(a1-2)Man(a1-3)Man
Method in brief: as §1

[29] = target: Man(a1-2)Man(a1-2)Man(a1-6)[Man(a1-3)]Man
Method in brief: as §1

[30] = target: Man(a1-2)Man(a1-3)Man
Method in brief: as §1

[31] = target: Man(a1-2)Man(a1-3)[Man(a1-2)Man(a1-6)]Man
Method in brief: as §1

[32] = target: Man(a1-2)Man(a1-3)[Man(a1-2)Man(a1-6)]Man(a1-6)[Man(a1-2)Man(a1-2)Man(a1-3)]Man
Method in brief: as §1

[33] = target: Man(a1-2)Man(a1-3)[Man(a1-2)Man(a1-6)]Man(a1-6)[Man(a1-2)Man(a1-2)Man(a1-3)]Man(b1-4)GlcNAc(b1-4)GlcNAc
Method in brief: as §1

[34] = target: Man(a1-2)Man(a1-3)[Man(a1-6)]Man(a1-6)[Man(a1-2)Man(a1-3)]Man(b1-4)GlcNAc(b1-4)GlcNAc
Method in brief: as §1

[35] = target: Man(a1-2)Man(a1-6)[Man(a1-3)]Man(a1-6)[Man(a1-2)Man(a1-2)Man(a1-3)]Man
Method in brief: as §1

[36] = target: Man(a1-2)Man(a1-6)[Man(a1-3)]Man(a1-6)[Man(a1-2)Man(a1-2)Man(a1-3)]Man(b1-4)GlcNAc(b1-4)GlcNAc
Method in brief: as §1

[37] = target: Man(a1-3)[Man(a1-6)]Man
Method in brief: as §1

B1: Surfactant Protein D (rat); Neck + Carbohydrate Recognition Domain (NCRD) (Rattus norvegicus) (protein)
chain: MLLFLLSALVLLTQPLGYLEAEMKTYSHRTMPSACTLVMCSSVESGLPGRDGRDGREGPRGEKGDPGLPGAAGQAGMPGQAGPVGPKGDNGSVGEPGPKGDTGPSGPPGPPGVPGPAGREGALGKQGNIGPQGKPGPKGEAGPKGEVGAPGMQGSAGARGAGPKGERGVPGERGVPGNTGAAGSAGAMGPQGSPGARGPPGLKGDKGIPGDKGAKGESGLPDVASLRQQVEALQGQVQHLQAAFSQYKKVELFPNGQSVGEKIFKTAGFVKPFTEAQLLCTQAGGQLASPRSAAENAALQQLVVAKNEAAFLSMTDSKTEGKFTYPTGESLVYSNWAPGEPNDDGGSEDCVEIFTNGKWNDRACGEKRLVVCEF
glycan array binding signal (z-score) [1]: 0.18
glycan array binding signal (z-score) [2]: -0.156
glycan array binding signal (z-score) [3]: -0.263
glycan array binding signal (z-score) [4]: -0.178
glycan array binding signal (z-score) [5]: -0.227
glycan array binding signal (z-score) [6]: -0.146
glycan array binding signal (z-score) [7]: -0.231
glycan array binding signal (z-score) [8]: -0.229
glycan array binding signal (z-score) [9]: -0.093
glycan array binding signal (z-score) [10]: -0.192
glycan array binding signal (z-score) [11]: -0.257
glycan array binding signal (z-score) [12]: -0.178
glycan array binding signal (z-score) [13]: -0.12
glycan array binding signal (z-score) [14]: -0.229
glycan array binding signal (z-score) [15]: -0.181
glycan array binding signal (z-score) [16]: -0.221
glycan array binding signal (z-score) [17]: -0.144
glycan array binding signal (z-score) [18]: -0.216
glycan array binding signal (z-score) [19]: 0.109
glycan array binding signal (z-score) [20]: -0.139
glycan array binding signal (z-score) [21]: -0.108
glycan array binding signal (z-score) [22]: -0.173
glycan array binding signal (z-score) [23]: -0.257
glycan array binding signal (z-score) [24]: -0.266
glycan array binding signal (z-score) [25]: -0.115
glycan array binding signal (z-score) [26]: -0.141
glycan array binding signal (z-score) [27]: -0.181
glycan array binding signal (z-score) [28]: 0.128
glycan array binding signal (z-score) [29]: 4.11
glycan array binding signal (z-score) [30]: -0.196
glycan array binding signal (z-score) [31]: 3
glycan array binding signal (z-score) [32]: 13.2
glycan array binding signal (z-score) [33]: -0.124
glycan array binding signal (z-score) [34]: 2.01
glycan array binding signal (z-score) [35]: 4.18
glycan array binding signal (z-score) [36]: 8.4
glycan array binding signal (z-score) [37]: -0.122
